How the values were obtained:
[1] = target: cyno pro-myostatin (Macaca fascicularis, UniProt Q95J86); assay: Biacore 8k SPR binding affinity, cyno pro-myostatin; parameters: species or system cynomolgus monkey
From the text: The Biacore™ 8k SPR system was utilized to evaluate the binding affinity of myostatin antibodies to biotinylated human, murine, and cyno pro-myostatin. Biotin CAPture kit and sensor chips (Cytiva) were utilized in these experiments to immobilize the various antigens, followed by flowing a range of concentrations of each of the test antibodies.

[2] = tested on: leptin; assay: circulating leptin, U-PLEX Metabolic Hormones Combo 1 (Example 6); format: in vivo, mouse; conditions: for Leptin Day 64 (circulating leptin): 60%/45% high fat diet
Method: Circulating leptin was measured using the U-PLEX Metabolic Hormones Combo 1 (mouse) according to manufacturer's instructions (Meso Scale Diagnostics, #K15306K-2). As expected, circulating leptin was higher in animals fed the high fat diet than animals fed a standard chow.

[3] = serum antibody exposure (PK) in obese mice with or without semaglutide (Example 8); format: in vivo, mouse; conditions: 0.1 to 3 mg/kg i.p. days 0, 7, 14, alone or with semaglutide; FIG. 16A
Method: Male 19 week old C7/BL6 mice fed a high fat diet to induce obesity (DIO-B6-M mice, were evaluated for the effect of the combination of antibody and semaglutide on the exposure of the antibody to the target antigen (PK) and the total myostatin serum level (PD), as shown in Table 25. Animals were dosed with antibody intraperitoneally on days 0, 7, and 14 and were dosed with semaglutide subcutaneously daily throughout the study. Exposure of the antibody to immobilized promyostatin was determined by ELISA. Total serum myostatin was also measured by ELISA. The study concluded on day 22, when terminal bleeds were obtained.

Ka [1]: 7.23e+06 M⁻¹ s⁻¹
Kd (1/s) [1]: 0.000925 s⁻¹
B1: Ab109: anti-pro/latent myostatin antibody; CDR sequences in Table 2d (antibody)
heavy: EVQLVESGGGLVQPGGSLRLSCAASGFTFSSYGMSWVRQAPGKGLELVASFTGSGGTYYPDSVKGRFTISRDNAKNSLYLQMNSLRAEDTAVYYCARDLLIRFLEWSHYYGMDVWGQGTTVTVSSASTKGPSVFPLAPCSRSTSESTAALGCLVKDYFPEPVTVSWNSGALTSGVHTFPAVLQSSGLYSLSSVVTVPSSSLGTKTYTCNVDHKPSNTKVDKRV[human IgG4 Fc with S228P (EU numbers) left out]
light: DIVMTQSPLSLPVTPGEPASISCRSSQSLLHSSGHNFLHWYLQKPGQSPQLLIYEVSNRVSGVPDRFSGSGSGTDFTLKISRVEAEDVGVYYCMQQTQYPPTFGGGTKVEIKRTVAAPSVFIFPPSDEQLKSGTASVVCLLNNFYPREAKVQWKVDNALQSGNSQESVTEQDSKDSTYSLSSTLTLSKADYEKHKVYACEVTHQGLSSPVTKSFNRGEC
Leptin Day 64 (circulating leptin) ([2]; semaglutide 0.04 mg/kg day 7-35 (regain arm)): 21.71 ng/mL
Leptin Day 64 (circulating leptin) ([2]; semaglutide 0.04 mg/kg day 7-63): 12.4 ng/mL
circulating leptin ([2]; FIG. 14K): decreased circulating leptin in the semaglutide withdrawal group
serum exposure of antibody (PK) [3]: dose proportional between 0.1 and 1 mg/kg and slightly exceeded dose proportionality at the highest dose of 3 mg/kg

From patent publication US20260209325A1, “SELECTIVE AND POTENT INHIBITORY ANTIBODIES OF MYOSTATIN ACTIVATION” (SCHOLAR ROCK, INC., priority 2022, published 2026)
